# Laboratory results published in PubChem BioAssay AID651820 (National Center for Advancing Translational Sciences (NCATS), 2012).
# Hit rate of the full screen: of about 340,000 compounds, about 12,000 (3.5%) were called active. This list was built around the results that the source calls inconclusive (neither active nor inactive); the mix of calls is not that of the screen. Calls follow the shape of the dose curve; as a rule, active = well fitted inhibition curve with a large enough effect; inconclusive = small, poorly fitted or top-dose-only effect, or another doubt; inactive = no such curve, though single readings can be large or run the other way. Potencies of inconclusive entries are left out as doubtful fits.
# Assay: qHTS Assay for Inhibitors of Hepatitis C Virus (HCV)
# Conditions: Huh7.5.1 HCVcc-Cre (HCVcc is cell-culture hepatitis C virus) infection, luciferase reporter, 44 h; series mostly up to 41.8 µM
# In short: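 1,000 cells/well; 4 h culture; + compound; + HCVcc-Cre (~0.5 moi); 44 h; luciferase substrate, RT 15 min; read 15 sec.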
# Potency is read from the fitted curve at half-maximal effect; tags tell the direction and shape of the fitted curve.
row,Compound,Potency
1,Cn1c(Cc2ccccc2)nnc1SCC(=O)c1ccc(Br)s1,"inconclusive [inhibitor, single point]"
2,C/C=C1\COC(C(=O)NCc2ccncc2)(C(F)(F)F)C=C1C=C1CCCCC1 (configuration not stated),"inconclusive [inhibitor, full curve]"
3,CCN(CC)S(=O)(=O)c1cc(NC(=O)c2n[nH]c(=O)c3ccccc23)ccc1C,inactive
4,CC1=C(C)/C(=N\OS(=O)(=O)c2ccc(C)cc2)C=CC1=O,"inconclusive [inhibitor, single point]"
5,COc1ccccc1NC(=O)Cc1csc(NC(=S)Nc2ccc(C)cc2)n1,"inconclusive [inhibitor, single point]"
6,COc1ccccc1/C=C/C(=O)N1CCc2cc(OC)c(OC)cc2C1C (configuration not stated),active: 22.4 µM
7,CCN(CCCNC(=O)CCCCn1c(=O)[nH]c2ccccc2c1=O)c1ccccc1,"inconclusive [inhibitor, single point]"
8,CC(C)Nc1nc(SC(C)C(=O)Nc2ccccc2)nc(N(C)C)n1 (configuration not stated),"inconclusive [inhibitor, single point]"
9,O=C(COc1ccc(C(=O)c2ccccc2)cc1)NC1CCCCCC1,active: 11.2 µM
10,O=C(c1cccs1)c1coc2ccc(O)cc12,inactive
11,Cc1cc(-c2ccccc2)oc(=O)c1NC(=O)c1ccccc1,"inconclusive [inhibitor, single point]"
12,COc1cc(OC)c(NC(=S)NCc2ccc(F)cc2)cc1Cl,"inconclusive [inhibitor, partial curve]"
13,COc1ccc(NC(=O)C2CCN(S(=O)(=O)c3cccc4cccnc34)CC2)cc1OC,inactive
14,CCOc1ccc(N=Nc2ccc(O)c3ncccc23)cc1,active: 7.94 µM
15,C/C(=N\NC(=O)c1nnn(-c2nonc2N)c1-c1cccs1)c1ccc(O)cc1,"inconclusive [inhibitor, single point]"
16,Cc1ccc(NC(=O)Nc2cccs2)cc1,inactive
17,CC1(C2CC(C(F)(F)F)n3nc(C(=O)O)cc3N2)CC1 (configuration not stated),inactive
18,COCCCNC(=O)c1cc2c(=O)n(C)c3ccccc3c2n1C,"inconclusive [inhibitor, single point]"
19,CN1CCN(CCNC(=O)Cn2c(=O)c3cccn3c3ccc(F)cc32)CC1,inactive
20,COc1cc(-c2nc(-c3ccc(C)nc3OC)no2)cc(OC)c1OC,"inconclusive [inhibitor, partial curve]"
21,Cc1cccc(N2CCN(C(=O)CSc3nc4ccccc4nc3N3CC(C)OC(C)C3)CC2)c1C (configuration not stated),active: 6.31 µM
22,c1cncc(-c2nc3cc4ccccc4cc3[nH]2)c1,"inconclusive [inhibitor, full curve]"
23,CC(=O)Nc1ccc(CN2CCCC(C(=O)c3cccc(C(F)(F)F)c3)C2)cc1 (configuration not stated),"inconclusive [inhibitor, full curve]"
24,CCn1c2ccccc2c2cc(NC(=O)COC(=O)C3CCC(=O)N3)ccc21 (configuration not stated),"inconclusive [inhibitor, partial curve]"

row,Compound,Potency
1,CCCCC(=O)Nc1nc2c(s1)COc1ccccc1-2,"inconclusive [inhibitor, single point]"
2,CCOc1ccc(CC(=O)NNC(=O)NC2CCCCC2)cc1,inactive
3,Cc1nnc2ccc(-c3cccc(C(F)(F)F)c3)nn12,inactive
4,CCCCn1cnc2c1c(=O)n(CC(=O)c1cc(C)n(C)c1C)c(=O)n2CC(C)C,inactive
5,CC(=O)c1ccc(S(=O)(=O)N2CCN(c3nc(-c4cccnc4)nc4ccccc34)CC2)cc1,"inconclusive [inhibitor, partial curve]"
6,CCOc1cc(NC(=S)NC)c(OCC)cc1NC(=O)c1cccs1,"inconclusive [inhibitor, single point]"
7,CN(CC(=O)Nc1cccc(F)c1)C(=O)c1ccc(NC2CC2)c([N+](=O)[O-])c1,inactive
8,CCN(CC)c1ccc2cc(C#N)c(=O)oc2c1,"inconclusive [inhibitor, single point]"
9,COc1ccc(C2CC(=O)c3sc(NC(C)=O)nc3C2)cc1 (configuration not stated),inactive
10,COC(=O)c1sc(Nc2ccccc2)nc1C,inactive
11,O=C(COC(=O)CSc1ccc(Cl)cc1)Nc1ccc2[nH]c(=O)[nH]c2c1,inactive
12,Cc1noc(C)c1C(=O)N1CCN(c2ccc(OCc3ccccc3)cc2)CC1,"inconclusive [inhibitor, partial curve]"
13,COc1ccc(-n2nc3c(N4CCC(C(=O)NCc5cccc(C)c5)CC4)nnc(C)c3c2C)cc1,"inconclusive [inhibitor, partial curve]"
14,CCN(CC)S(=O)(=O)c1ccc(/C=C/C(=O)Nc2ccc(N3CCOCC3)cc2)cc1,active: 12.6 µM
15,O=C(Nc1ccc(Cl)cc1)N1CCc2[nH]c3ccccc3c2C1,"inconclusive [inhibitor, single point]"
16,CC1(c2ccccc2)O[C@@H]2C[C@H]3[C@@H]4CCC5=CC(=O)C=C[C@]5(C)[C@@]4(F)[C@@H](O)C[C@]3(C)[C@]2(C(=O)CO)O1 (some centres not stated),inactive
17,COc1cc2ccccc2cc1C(=O)Nc1cc(C)ccn1,active: 12.6 µM
18,COc1ccc(CN2CCN(Cc3cc4ccccc4o3)CC2CCO)cc1C (configuration not stated),"inconclusive [inhibitor, single point]"
19,O=C(COc1ccccc1-c1ccccc1)NCc1cccc(Cl)c1,"inconclusive [inhibitor, single point]"
20,Cc1ccc(N2C(=O)NC(=O)/C(=C/C=C/c3ccco3)C2=O)cc1,"inconclusive [inhibitor, single point]"
21,CCCCCn1c(C)c2c(OCC)cccc(=O)c2c1C,"inconclusive [inhibitor, single point]"
22,COc1ccc(C(=O)Nc2ccc(S(=O)(=O)NC(C)C)cc2)cc1,"inconclusive [inhibitor, single point]"
23,Brc1ccc(-c2cn3ccccc3n2)s1,active: 8.91 µM
24,O=C(CCNC(=O)c1ccccc1Cl)Nc1cc(C(F)(F)F)ccc1Cl,inactive

row,Compound,Potency
1,Cc1nc(-c2cccc(NC(=O)c3ccc(Br)o3)c2)cs1,"inconclusive [inhibitor, partial curve]"
2,CN(C(=O)CS(=O)(=O)c1cccc(Cl)c1)c1ccccc1,inactive
3,COc1ccc(Nc2oc(COc3ccccc3OC)nc2C#N)cc1,inactive
4,CCCCC(=O)Nc1nc(-c2ccc(S(=O)(=O)N3CCOCC3)cc2)cs1,"inconclusive [inhibitor, single point]"
5,O=C(Nc1cccc(S(=O)(=O)N2CCCC2)c1)c1cncc(Br)c1,"inconclusive [inhibitor, single point]"
6,COc1cc(OC)c2c(-c3cccc(-c4ccc(OC)c(OC)c4)c3)cc(=O)oc2c1,"inconclusive [inhibitor, partial curve]"
7,COc1cc2sc3ccc(-c4ccc(N(C)C)nc4)cc3c(=O)c2cc1OC,"inconclusive [inhibitor, full curve]"
8,CCc1cc(C(=O)NCC(C)(C)N2CCOCC2)sc1C,"inconclusive [inhibitor, single point]"
9,O=C1CN(C(=O)CSc2nc3cc(Cl)ccc3c(=O)n2Cc2ccccc2)c2ccccc2N1,active: 11.2 µM
10,COc1ccccc1N(C(=O)c1ccncc1)c1nc(-c2ccc([N+](=O)[O-])cc2)cs1,"inconclusive [inhibitor, partial curve]"
11,CCCOc1ccc(C(=O)C(CN2CCOCC2)c2ccccc2)cc1 (configuration not stated),"inconclusive [inhibitor, single point]"
12,COc1ccc(-c2cc(C(F)F)n3ncc(C(=O)Nc4cccc(S(=O)(=O)N5CCOCC5)c4)c3n2)cc1,"inconclusive [inhibitor, partial curve, poor fit]"
13,O=C1CSC(c2cn(-c3ccccc3)nc2-c2cc3ccccc3o2)N1Cc1ccccc1 (configuration not stated),"inconclusive [inhibitor, single point]"
14,COC(=O)c1ccc(Sc2nnnn2-c2ccccc2)c([N+](=O)[O-])c1,inactive
15,COc1ccc(Nc2c([N+](=O)[O-])ccc3c2=NC2(CCCCC2)N=3)cc1,"inconclusive [inhibitor, partial curve]"
16,Cc1ccc(C(=O)OCC(=O)NCc2cccc(Cl)c2)cc1S(=O)(=O)N1CCCCC1,"inconclusive [inhibitor, single point]"
17,CC(C)(C)NC(=O)C12CCC(C)(c3nc4ccccc4nc31)C2(C)C (configuration not stated),inactive
18,CSC(SC)=C(C#N)C(=O)c1ccccc1,"inconclusive [inhibitor, single point]"
19,COC(=O)c1c(NC(NC(=O)C(C)C)C(Cl)(Cl)Cl)sc2c1CCCC2 (configuration not stated),"inconclusive [inhibitor, single point]"
20,CC(=O)Nc1ccc(OCC(=O)N2CCC(Cc3ccccc3)CC2)cc1,inactive
21,COc1ccc(C2c3c(ncn(CCCO)c3=N)Oc3ccc4ccccc4c32)cc1OC (configuration not stated),"inconclusive [inhibitor, single point]"
22,COc1ccc(-n2cnc3ccccc3c2=O)c([N+](=O)[O-])c1,inactive
23,CN1CCN(CC(=O)N(C)c2nc(-c3ccccc3)cs2)CC1,"inconclusive [inhibitor, single point]"
24,Cc1cc(/C=C(\C#N)C(=O)N2CCOCC2)c(C)n1C1CCCC1,inactive
